B1: CPEB3 Ribozyme (parent)
chain: UAACAGGGGGCCACAGCAGAAGCGUUCACGUCGCAGCCCCUGUCAGAUUCUGGUGAAUCUGCGAAUUCUGCUGUAUAUCUC

The source gives no read counts; variants with many changes may rest on few reads.

In this data set the parent is B1. Put plainly: self-cleavage, relative activity (ratio to wild type); higher = more cleavage; in vitro, sequencing. In short, it runs like this:
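Relative activity was defined as the cleaved/total read fraction for a variant divided by the same fraction for the unmutated ribozyme. CPEB3 self-cleaving ribozyme libraries were made by rounds of error-prone PCR, barcoded, and transcribed in vitro with T7 RNA polymerase for 5 hours at 37°C, and cleavage ran through transcription plus a 15 min DNase I step before EDTA. Illumina sequencing of template-switched reverse transcripts gave the reads, and DNA sequencing mapped the barcodes. Averages come from three batches, using variants with at least 5 reads.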
As to U1C A5G A13G A18G, the self-cleavage turned out to be 0.65.
As to U1A A13G U25C A45U, the self-cleavage was determined as 0.26.
With U1A A35G U74C the figure was 1.24; with U1A U25A U26C U78C U80A, 0.12; with U1A C37U G46U, 0.17.
The same measure for U1A C11U A20G A21G G70A: 0.06; for U1A A20G C29A: 0.42.
As to U1A A2G C34U C40U G46A, the self-cleavage turned out to be 0.09.
In the case of U1C A3G U25G A28G U51A, the self-cleavage came out at 0.03.
The same measure for U1C A2U G7C U49A: 0.52.
Regarding U1A A13U U26A C29U U69C, the self-cleavage amounted to 0.26.
The same measure for U1A A3G U41G C59A U66C: 0.2.
In the case of U1C A5G A18U C50U A57U, the self-cleavage was 0.08.
With U1A A3G U25C U48C U49C C59U the figure was 0.19; with U1A A2C A47G U60C, 0.26.
With U1A A2C U25C U51A U67A U69A the figure was 0.07; with U1A A28G A45U U80A, 0.25; with U1A A20G U25C A57G, 0.09.
For the variant U1A A65U U66G, the self-cleavage is 0.51.
As to U1A U43C U76A, the self-cleavage stood at 0.33.
Consider U1C A3G C14U C34U U58C, for which the self-cleavage was 0.06.
The same measure for U1C A2U U43A: 1.12; for U1A G10U A21G U31C: 0.1; for U1A A15U G24C U49A U74C: 0.13.
As for U1A U26A C62A, the self-cleavage was determined as 0.26.
With U1A A15G U31C G42A the figure was 0.33; with U1A A56U U69A, 0.25.
Regarding U1A A13U A56U A75G, the self-cleavage was found to be 0.48.
With U1A A13G C37U U43A A64U the figure was 0.17; with U1A G9A C27G A35G A45G A56U, 0.06; with U1A C29U U49C U60C U72A, 0.15.
As for U1A A3G A35U A56G, the self-cleavage amounted to 0.67.
With U1A A13G U76A the figure was 0.65.
With U1A A5G A56G A65G U72C the figure was 0.35.
On to U1A A28G U49C U80A, for which the self-cleavage turned out to be 0.27.
The same measure for U1C A3G A18G U51A U80A: 0.92; for U1A A21G U60C A65G U72C U74C: 0.1.
On to U1C A5U A45G U51A U69A U80A, for which the self-cleavage turned out to be 0.21.
With U1C A3G A35U G36A U41C the figure was 0.7.
With U1A U26A U43C the figure was 0.24; with U1A A13G U80A, 1.01.
Turning to U1C A3G U26G A28G U54G, the self-cleavage was 0.59.
With U1A C37G U48C A57G U58C U69C U72C the figure was 0.03.
On to U1C A2G A13U U26C A28G, for which the self-cleavage was 0.28.
On to U1C A2G A15U A20G C38G A64U A75G, for which the self-cleavage is 0.06.
Regarding U1A U25A C34U, the self-cleavage turned out to be 0.08.
Take U1A A15U G19U U41C: the self-cleavage turned out to be 0.12.
The same measure for U1A A47G U58C U76A: 1.09; for U1C A2U U25C A28G C32U C40U U43C: 0.05; for U1A G16A U51G A56U: 0.14.
For the variant U1A G30C A35U U43C C44A U80C, the self-cleavage was determined as 0.1.
For the variant U1A A28G U31A U58G U72C, the self-cleavage amounted to 0.2.
For the variant U1A C38G A47G C59A U69A A77U U80A, the self-cleavage was 0.07.
The same measure for U1A U41A A45G U51A: 0.06.
For the variant U1C A3G A13G U25C U54C, the self-cleavage is 0.56.
U1A A21G U25C C50U A65G A77U: the self-cleavage is 0.05.
Turning to U1A A56G U72A, the self-cleavage turned out to be 0.39.
For the variant U1A G9A A18G A56G A57G, the self-cleavage was found to be 0.07.
As to U1C A2G U54C U69A U80C, the self-cleavage turned out to be 0.45.
The same measure for U1A A15U C23U A28U A56G U76A: 0.06; for U1A G9U U43C A57U A64G C71U: 0.08; for U1A C11U A18G U48A A56G U69A: 0.07.
With U1A A5U C29U A57G A77G the figure was 0.26; with U1A C23U U26C A35G A64U U69A U78A, 0.05.
On to U1A A45G U58C C79U, for which the self-cleavage amounted to 0.26.
Consider U1A U54C U66C U80C C81G, for which the self-cleavage worked out at 0.22.
With U1A C71A U78C, the self-cleavage was 0.23.
On to U1A G8A U41C, for which the self-cleavage was found to be 0.12.
Regarding U1A G16C A45G U51C U72A, the self-cleavage was determined as 0.18.
As for U1A A21C U60C U78A, the self-cleavage came out at 0.02.
As to U1A A13U U49A, the self-cleavage was 0.78.
Regarding U1C A2G A18U A28U C29A U41A U72C, the self-cleavage was determined as 0.09.
With U1A U26A U41A A56G, the self-cleavage came out at 0.08.
The same measure for U1C A5G U26C U41C G42C: 0.09; for U1A G9C U26A C71U: 0.08; for U1A C29A U78C: 0.22.
Consider U1A A57G U60C U69C U72C, for which the self-cleavage turned out to be 0.18.
As for U1A U25C U60C U78C, the self-cleavage is 0.09.
With U1C A2U A65G U78A, the self-cleavage stood at 0.18.
Consider U1A U41C A47G U48C G61A U67C U78C, for which the self-cleavage turned out to be 0.08.
With U1A U43C A45U the figure was 0.28; with U1A U43C A45G, 0.66.
Take U1A G36C A45U: the self-cleavage turned out to be 0.26.
The same measure for U1C A2G A45G A56U: 0.07.
With U1A A5G A45U C62U U76C, the self-cleavage was determined as 0.24.
The same measure for U1A A21G C29A: 0.13; for U1C A5G G8U U25C U43A U49C U51C: 0.04.
For U1C A3G A21G C29U G33C A47G U54C, the self-cleavage turned out to be 0.05.
For the variant U1C A2U A5U, the self-cleavage was determined as 0.91.
With U1C A2U U41C A45U A65G U74C U80C the figure was 0.33.
In the case of U1A A5G A20G U25A A64U, the self-cleavage came out at 0.14.
In the case of U1A A13C U25C A35U U41A U67G U76C, the self-cleavage worked out at 0.1.
In the case of U1A A13U G22U G63A A64G A75G, the self-cleavage is 0.13.
With U1A A15G U51C the figure was 0.81; with U1A A64U A77G, 0.28.
Take U1A A47G U58C U74C U76C: the self-cleavage is 1.27.
With U1A A64G U67C the figure was 0.27; with U1C A2C A47G U66C U78A, 0.04.
On to U1A A13U U31C G46U U51G A77U, for which the self-cleavage amounted to 0.13.
U1C A2G U72C: the self-cleavage turned out to be 0.86.
With U1A A3G C11G U66C the figure was 0.4; with U1C A5G A57G U67A, 0.09.
The same measure for U1A G6A U26C C40U G63A: 0.17; for U1A A35U G46U: 0.07; for U1A A5G A13G A15G U25C G33A U54A: 0.15.
The same measure for U1A A15U A21G C34A A35G U74A: 0.25.
For U1A A2G A18G U54C U60C A64G U69C, the self-cleavage came to 0.14.
The same measure for U1C A5U C32U U51A A64G U69C: 0.11; for U1C A5G A15U A28G U58C: 0.07; for U1A A45G A47G C59A C62U: 0.07.
The same measure for U1A G42U U66G G70A: 0.16; for U1A G6A A57G U58A U74C: 0.1; for U1A A13G U26A: 0.44.
With U1A U25C G46A A64U the figure was 0.2; with U1A A13U A18G G33A U67C U69C A75G, 0.06.
Regarding U1A A2C A47G, the self-cleavage stood at 1.06.
For U1A A13G U25C C39A U51A, the self-cleavage came to 0.25.
With U1A U51G G52A G53A G55A U80G the figure was 1.14; with U1A A47G U74C, 1.21; with U1C A5G U72C, 0.47.
With U1A U41A A47G U54C U60A U66C the figure was 0.09.
With U1C A3G U48C U72C the figure was 0.12; with U1A A15U A35U A45C C59U A77G, 0.1; with U1C A5G C17U G30A U60A, 0.08.
Consider U1A A15G A28G, for which the self-cleavage was 0.48.
With U1A U54G U72C the figure was 0.79; with U1A A20U U51C, 0.45.
The same measure for U1A U25C C37U: 0.11; for U1A A13G A64G U69C: 0.33; for U1A A3C A57G C79U: 1.21.
The same measure for U1C A2C A5G G7A A21U C39U U67C: 0.21; for U1C A2U A13G: 0.8.
Turning to U1A A2G A13G U41C A45G U54C, the self-cleavage stood at 0.29.
The same measure for U1A A28U C38U A56G A64G: 0.1; for U1A A3G G9A A28G U60G U72C U74A: 0.06; for U1C A3U A5U A18G C23U A77U C81U: 0.1.
With U1A A5G A15G A21G U31C A45U U76G, the self-cleavage was 0.04.
With U1A A35G U66C U69C the figure was 0.57; with U1A U26C A35G G55A U60A, 0.23; with U1A A2G G22A A35G U41A G61A, 0.1.
As to U1A U49C A57U U60C, the self-cleavage stood at 0.14.
In the case of U1A U43A U66C, the self-cleavage came out at 0.44.
The same measure for U1C A3U C12U A56G A57G: 0.52; for U1A U31C G36A U58A C62G: 0.15.
U1A A20G C27U: the self-cleavage came to 0.26.
With U1A U26C U43C U80A the figure was 0.83; with U1A A65G U78C, 0.2.
With U1A A3G C39A A77G the figure was 0.54.
With U1A C39A U49G, the self-cleavage is 0.26.
The same measure for U1A U41C A45C: 0.52.
The same measure for U1A A20G C29A C34U A64G: 0.4.
On to U1A C23U A35G U66C A77G, for which the self-cleavage turned out to be 0.47.
U1A A21U U80C: the self-cleavage was found to be 0.64.
As to U1A G24C U41A U76C, the self-cleavage amounted to 0.16.
On to U1A A2G A18U U80C, for which the self-cleavage was 0.32.
Take U1A U31A U48C: the self-cleavage was found to be 0.16.
For U1A U54A A65G U78C, the self-cleavage was 0.4.
The same measure for U1A A2G A5C A47G A56G U69A U80A: 0.25; for U1A U60C C62U: 0.22; for U1A U31C G33A C71A: 0.15.
With U1A A5G U41C A56G U60A the figure was 0.28; with U1A A3G A45U A47G U80C, 0.72; with U1A A18U U54C A57G U67C U69A, 0.16.
The same measure for U1A A28G A65G: 0.23.
In the case of U1A A15U A45C C59U, the self-cleavage was found to be 0.3.
As to U1A A5U A20U U67C, the self-cleavage was determined as 0.27.
With U1A A21G U25A A45U A56G U72G U74A the figure was 0.07.

Values taken from the RNAGym collection of RNA variant scans (doi:10.1093/nar/gkz1192).
